Results are given in words; binding and its absence hold for the method and conditions named. In cells and extracts the contact can be indirect. Some binding calls cover weakened binding; strength is not graded here. Sequences can lack the tags named with a protein.
T1: human iTAP-FLAG (human) (UniProt Q9BZ67)
T1 sequence: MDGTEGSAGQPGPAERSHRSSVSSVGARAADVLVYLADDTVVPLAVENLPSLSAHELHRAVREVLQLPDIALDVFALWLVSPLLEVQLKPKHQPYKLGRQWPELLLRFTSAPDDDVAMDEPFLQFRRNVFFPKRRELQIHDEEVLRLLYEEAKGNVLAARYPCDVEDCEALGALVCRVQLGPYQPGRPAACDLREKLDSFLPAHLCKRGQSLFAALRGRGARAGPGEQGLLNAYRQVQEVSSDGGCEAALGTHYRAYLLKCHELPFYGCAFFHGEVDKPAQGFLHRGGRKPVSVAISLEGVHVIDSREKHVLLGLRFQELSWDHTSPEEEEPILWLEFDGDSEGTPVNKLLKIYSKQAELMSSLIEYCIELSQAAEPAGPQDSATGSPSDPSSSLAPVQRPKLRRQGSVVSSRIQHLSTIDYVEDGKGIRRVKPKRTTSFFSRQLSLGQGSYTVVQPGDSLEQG

The chains behind the UniProt entries cited, without tags or fusion partners.
UniProt Q8VEK2: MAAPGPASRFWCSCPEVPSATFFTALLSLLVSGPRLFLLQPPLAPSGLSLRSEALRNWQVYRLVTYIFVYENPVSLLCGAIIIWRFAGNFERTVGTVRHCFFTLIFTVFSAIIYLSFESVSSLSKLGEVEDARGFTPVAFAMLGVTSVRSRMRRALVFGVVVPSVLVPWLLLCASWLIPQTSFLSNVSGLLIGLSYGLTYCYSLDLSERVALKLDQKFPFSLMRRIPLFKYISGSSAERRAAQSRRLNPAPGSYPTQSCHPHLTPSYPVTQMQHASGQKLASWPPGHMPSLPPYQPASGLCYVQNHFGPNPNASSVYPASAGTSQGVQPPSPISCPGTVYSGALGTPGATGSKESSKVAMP

T2: HA-tagged mouse Ubac2 (mouse) (UniProt Q8R1K1)
T2 sequence: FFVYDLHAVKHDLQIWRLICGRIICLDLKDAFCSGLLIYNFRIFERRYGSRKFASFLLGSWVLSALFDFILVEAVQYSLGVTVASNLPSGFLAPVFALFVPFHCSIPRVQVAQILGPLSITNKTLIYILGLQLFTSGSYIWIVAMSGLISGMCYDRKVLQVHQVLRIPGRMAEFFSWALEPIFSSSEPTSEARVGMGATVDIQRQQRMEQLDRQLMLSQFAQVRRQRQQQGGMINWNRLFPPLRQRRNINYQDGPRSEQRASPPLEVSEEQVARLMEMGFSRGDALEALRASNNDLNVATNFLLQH

T3: HA-tagged full-length human iRhom1 (human) (UniProt Q96CC6)
T3 sequence: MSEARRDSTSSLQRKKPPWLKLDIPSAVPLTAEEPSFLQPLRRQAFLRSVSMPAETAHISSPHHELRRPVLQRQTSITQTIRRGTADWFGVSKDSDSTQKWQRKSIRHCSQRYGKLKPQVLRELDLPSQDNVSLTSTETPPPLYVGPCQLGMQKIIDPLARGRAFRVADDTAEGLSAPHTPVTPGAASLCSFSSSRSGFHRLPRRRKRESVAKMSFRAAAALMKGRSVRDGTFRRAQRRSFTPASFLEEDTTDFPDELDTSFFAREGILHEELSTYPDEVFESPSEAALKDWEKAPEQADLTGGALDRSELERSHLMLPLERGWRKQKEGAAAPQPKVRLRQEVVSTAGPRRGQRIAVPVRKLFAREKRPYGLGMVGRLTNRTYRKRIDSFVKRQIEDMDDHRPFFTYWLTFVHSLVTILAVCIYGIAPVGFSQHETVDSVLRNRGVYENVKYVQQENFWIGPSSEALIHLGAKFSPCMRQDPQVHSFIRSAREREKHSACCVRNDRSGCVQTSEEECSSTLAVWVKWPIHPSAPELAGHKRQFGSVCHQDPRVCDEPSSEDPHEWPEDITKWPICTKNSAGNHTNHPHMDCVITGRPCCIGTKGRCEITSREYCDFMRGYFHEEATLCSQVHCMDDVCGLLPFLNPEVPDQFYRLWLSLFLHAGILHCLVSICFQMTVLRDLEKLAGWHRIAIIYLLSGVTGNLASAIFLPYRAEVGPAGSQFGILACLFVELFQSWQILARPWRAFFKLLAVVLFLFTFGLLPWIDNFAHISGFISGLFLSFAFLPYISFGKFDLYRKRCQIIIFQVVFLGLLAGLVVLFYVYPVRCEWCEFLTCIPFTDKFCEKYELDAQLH

T4: HA-tagged full-length mouse iRhom2 (mouse) (UniProt Q80WQ6)
T4 sequence: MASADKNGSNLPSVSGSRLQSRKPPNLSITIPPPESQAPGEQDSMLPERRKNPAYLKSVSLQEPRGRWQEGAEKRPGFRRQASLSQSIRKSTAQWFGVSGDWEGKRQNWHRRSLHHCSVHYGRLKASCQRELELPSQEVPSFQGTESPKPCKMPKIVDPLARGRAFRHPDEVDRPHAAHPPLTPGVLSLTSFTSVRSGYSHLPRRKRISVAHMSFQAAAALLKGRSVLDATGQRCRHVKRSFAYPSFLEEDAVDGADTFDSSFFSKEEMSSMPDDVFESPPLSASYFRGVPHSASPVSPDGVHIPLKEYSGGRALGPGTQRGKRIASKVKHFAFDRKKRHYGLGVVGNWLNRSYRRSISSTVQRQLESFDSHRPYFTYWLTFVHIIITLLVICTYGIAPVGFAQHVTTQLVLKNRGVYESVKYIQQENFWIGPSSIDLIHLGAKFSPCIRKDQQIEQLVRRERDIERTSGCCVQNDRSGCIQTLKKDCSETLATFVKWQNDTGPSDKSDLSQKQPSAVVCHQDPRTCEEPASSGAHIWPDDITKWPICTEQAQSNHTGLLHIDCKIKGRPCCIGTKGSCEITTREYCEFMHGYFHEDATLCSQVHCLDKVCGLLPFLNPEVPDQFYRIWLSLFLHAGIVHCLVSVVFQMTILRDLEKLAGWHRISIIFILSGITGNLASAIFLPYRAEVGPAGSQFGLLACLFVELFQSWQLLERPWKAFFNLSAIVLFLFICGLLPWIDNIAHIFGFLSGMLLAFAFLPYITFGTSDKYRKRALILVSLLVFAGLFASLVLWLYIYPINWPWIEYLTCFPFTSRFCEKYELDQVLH

T5: HA-tagged cytoplasmic N-terminus of human iRhom1 (amino acids 1-404) (human) (UniProt Q96CC6)
T5 sequence: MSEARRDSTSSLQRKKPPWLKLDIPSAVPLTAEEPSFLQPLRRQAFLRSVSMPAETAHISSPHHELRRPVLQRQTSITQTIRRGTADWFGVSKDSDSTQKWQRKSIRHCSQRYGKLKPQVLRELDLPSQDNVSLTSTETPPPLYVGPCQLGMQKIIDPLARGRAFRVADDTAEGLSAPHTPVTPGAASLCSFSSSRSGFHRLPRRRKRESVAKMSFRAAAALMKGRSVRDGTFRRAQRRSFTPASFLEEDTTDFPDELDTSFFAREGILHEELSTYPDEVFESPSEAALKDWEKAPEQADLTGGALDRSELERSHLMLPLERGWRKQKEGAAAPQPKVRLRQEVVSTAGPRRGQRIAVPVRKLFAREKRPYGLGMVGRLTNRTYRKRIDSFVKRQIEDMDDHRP

B1: HA-tagged full-length mouse iRhom2 (protein, UniProt Q80WQ6 1-827)
chain: T4 sequence
B2: human iTAP-FLAG (protein, UniProt Q9BZ67 1-464)
chain: T1 sequence

Tests used:
human iTAP-FLAG (human) = target: T1, human iTAP-FLAG (human); assay: co-IP; HEK 293ET stably expressing iRhom2-HA, transiently transfected with iTAP-FLAG; cells ± thiol-reducible cross-linker DSP; anti-FLAG immunoprecipitation; DTT to reverse cross-links; Endo-H or PNGase F deglycosylation; HA blot
[1] = target: T2, HA-tagged mouse Ubac2 (mouse); assay: co-IP; HEK 293ET transfected with iTAP-FLAG and HA-tagged proteins; 1% Triton X-100, 150 mM NaCl, 50 mM Tris-HCl pH 7.4 lysis; anti-HA magnetic beads; washes with 300 mM NaCl at 4°C; FLAG western blot
[2] = target: T3, HA-tagged full-length human iRhom1 (human); assay: as above
[3] = target: HA-tagged mouse Rhbdd2 (mouse) (UniProt Q8VEK2); assay: as above
[4] = target: T4, HA-tagged full-length mouse iRhom2 (mouse); assay: as above
[5] = target: T5, HA-tagged cytoplasmic N-terminus of human iRhom1 (amino acids 1-404) (human); assay: as above

Row | Binder | binding (human iTAP-FLAG (human)) | binding [1] | binding [2] | binding [3] | binding [4] | binding [5]
1 | B1 | binds |  |  |  |  | 
2 | B2 |  | no binding | binds | no binding | binds | binds

Source: paper PMC6042963
